ChEMBL document CHEMBL4229546, “Structure-based design and synthesis of 1H-pyrazolo[3,4-d]pyrimidin-4-amino derivatives as Janus kinase 3 inhibitors” (Bioorg Med Chem, 2018)

Legend:
[1] = target: T1, Tyrosine-protein kinase JAK3 (Homo sapiens, UniProt P52333)
T1 sequence (P52333 whole entry): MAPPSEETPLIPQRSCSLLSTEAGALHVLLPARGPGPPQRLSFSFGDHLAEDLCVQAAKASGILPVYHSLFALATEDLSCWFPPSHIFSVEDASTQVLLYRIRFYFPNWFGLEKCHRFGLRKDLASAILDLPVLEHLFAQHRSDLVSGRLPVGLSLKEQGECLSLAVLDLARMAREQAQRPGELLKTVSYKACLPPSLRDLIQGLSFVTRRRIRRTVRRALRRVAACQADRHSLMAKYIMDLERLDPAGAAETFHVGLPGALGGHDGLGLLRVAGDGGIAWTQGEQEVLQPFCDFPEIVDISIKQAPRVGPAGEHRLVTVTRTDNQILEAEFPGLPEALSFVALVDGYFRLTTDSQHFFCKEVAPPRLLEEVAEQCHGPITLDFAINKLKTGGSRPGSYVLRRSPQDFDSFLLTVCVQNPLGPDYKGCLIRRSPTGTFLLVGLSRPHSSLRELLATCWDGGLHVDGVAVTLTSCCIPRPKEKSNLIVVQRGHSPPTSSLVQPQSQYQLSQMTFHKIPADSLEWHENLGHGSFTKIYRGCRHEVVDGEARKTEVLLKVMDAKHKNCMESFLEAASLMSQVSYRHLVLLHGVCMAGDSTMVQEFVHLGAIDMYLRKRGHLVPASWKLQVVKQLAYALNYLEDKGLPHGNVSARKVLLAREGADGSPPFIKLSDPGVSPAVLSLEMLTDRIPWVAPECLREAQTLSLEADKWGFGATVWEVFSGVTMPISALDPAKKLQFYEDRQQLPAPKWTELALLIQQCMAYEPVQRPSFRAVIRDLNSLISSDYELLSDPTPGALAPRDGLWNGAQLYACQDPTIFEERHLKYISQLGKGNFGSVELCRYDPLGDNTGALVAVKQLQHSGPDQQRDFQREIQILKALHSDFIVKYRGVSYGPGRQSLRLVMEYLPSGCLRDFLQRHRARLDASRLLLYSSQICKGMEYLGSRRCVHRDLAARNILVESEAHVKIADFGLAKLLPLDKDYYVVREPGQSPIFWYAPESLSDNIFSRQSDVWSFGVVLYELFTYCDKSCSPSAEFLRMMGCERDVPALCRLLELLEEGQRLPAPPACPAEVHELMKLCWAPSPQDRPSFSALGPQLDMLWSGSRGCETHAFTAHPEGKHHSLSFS

[2] = target: Tyrosine-protein kinase JAK2 (Homo sapiens, UniProt O60674)
Tyrosine-protein kinase JAK2, sequence (O60674 whole entry): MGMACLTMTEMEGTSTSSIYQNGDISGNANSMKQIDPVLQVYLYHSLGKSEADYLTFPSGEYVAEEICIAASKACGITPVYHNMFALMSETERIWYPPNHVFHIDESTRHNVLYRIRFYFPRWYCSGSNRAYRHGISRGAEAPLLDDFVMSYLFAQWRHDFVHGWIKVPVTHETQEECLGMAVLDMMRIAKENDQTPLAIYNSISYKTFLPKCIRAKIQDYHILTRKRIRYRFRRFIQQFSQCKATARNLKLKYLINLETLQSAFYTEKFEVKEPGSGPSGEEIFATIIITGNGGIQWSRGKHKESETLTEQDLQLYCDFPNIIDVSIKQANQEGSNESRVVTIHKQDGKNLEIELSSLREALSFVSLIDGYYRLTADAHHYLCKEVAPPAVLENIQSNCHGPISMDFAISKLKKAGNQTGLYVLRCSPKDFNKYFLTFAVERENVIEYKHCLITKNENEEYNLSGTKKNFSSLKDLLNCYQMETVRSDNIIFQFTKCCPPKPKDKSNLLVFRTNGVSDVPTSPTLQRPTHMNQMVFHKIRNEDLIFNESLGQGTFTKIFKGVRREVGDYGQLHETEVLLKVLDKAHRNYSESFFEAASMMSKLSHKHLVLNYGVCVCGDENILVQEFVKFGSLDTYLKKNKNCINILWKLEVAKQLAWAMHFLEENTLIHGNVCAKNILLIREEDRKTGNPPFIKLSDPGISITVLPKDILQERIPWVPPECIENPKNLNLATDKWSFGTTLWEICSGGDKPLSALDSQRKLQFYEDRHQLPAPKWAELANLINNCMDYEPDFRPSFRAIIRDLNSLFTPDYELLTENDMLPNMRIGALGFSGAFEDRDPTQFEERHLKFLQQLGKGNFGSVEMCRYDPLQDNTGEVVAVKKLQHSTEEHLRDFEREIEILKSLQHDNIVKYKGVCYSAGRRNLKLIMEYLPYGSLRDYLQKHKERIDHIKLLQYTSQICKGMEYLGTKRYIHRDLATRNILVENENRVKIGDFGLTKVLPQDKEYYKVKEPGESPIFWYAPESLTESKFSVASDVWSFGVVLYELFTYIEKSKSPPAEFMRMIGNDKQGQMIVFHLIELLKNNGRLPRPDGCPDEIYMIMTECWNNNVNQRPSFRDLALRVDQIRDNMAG

SMILES | IC50 [1] | IC50 [2]
C=CC(=O)N1CCC(n2nc(-c3cnn(C)c3)c3c(N)ncnc32)C1 (centres undefined) | 9.9 nM | 499 nM
Cn1cc(-c2nn(C3CCN(C(=O)CC#N)CC3)c3ncnc(N)c23)cn1 | 395 nM | 282 nM
CN(C)CC(=O)N1CCCC(Cn2nc(-c3cnn(C)c3)c3c(N)ncnc32)C1 (centres undefined) | 591 nM | 1950 nM
Cn1cc(-c2nn(CC3CCCN(C(=O)CC#N)C3)c3ncnc(N)c23)cn1 (centres undefined) | 56.1 nM | 78.4 nM
C=CC(=O)Nc1cccc(Cn2nc(-c3cnn(CCOC)c3)c3c(N)ncnc32)c1 | 154 nM | –
COCCn1cc(-c2nn(CC3CCCN(C(=O)CC#N)C3)c3ncnc(N)c23)cn1 (centres undefined) | 87.4 nM | –
COCCn1cc(-c2nn(C3CCCN(C#N)C3)c3ncnc(N)c23)cn1 (centres undefined) | 144 nM | 197 nM
CN(C)CC(=O)N1CCC(n2nc(-c3cnn(C)c3)c3c(N)ncnc32)CC1 | > 1000 nM | > 1000 nM
C=CC(=O)N1CCCC(n2nc(-c3cnn(C)c3)c3c(N)ncnc32)C1 (centres undefined) | 6.2 nM | 396 nM
COCCn1cc(-c2nn(CC3CCCN(C(=O)CN(C)C)C3)c3ncnc(N)c23)cn1 (centres undefined) | 787 nM | –
Cn1cc(-c2nn(C3CCCN(C#N)C3)c3ncnc(N)c23)cn1 (centres undefined) | 115 nM | 168 nM
Cn1cc(-c2nn(C3CCN(C#N)CC3)c3ncnc(N)c23)cn1 | 94.3 nM | 104 nM
Cn1cc(-c2nn(CC3CCN(C#N)CC3)c3ncnc(N)c23)cn1 | > 1000 nM | –
Cn1cc(-c2nn(CC3CCN(C(=O)CC#N)CC3)c3ncnc(N)c23)cn1 | 278 nM | –
C=CC(=O)Nc1cccc(Cn2ncc3c(Nc4cnn(CCOC)c4)ncnc32)c1 | 267 nM | –
C=CC(=O)N1CCC(Cn2nc(-c3cnn(CCOC)c3)c3c(N)ncnc32)CC1 | 324 nM | 497 nM
COCCn1cc(-c2nn(C3CCN(C(=O)CN(C)C)CC3)c3ncnc(N)c23)cn1 | > 1000 nM | –

SMILES | IC50 [1] | IC50 [2]
C=CC(=O)N1CCC(n2nc(-c3cnn(CCOC)c3)c3c(N)ncnc32)C1 (centres undefined) | 15.6 nM | 509 nM
C=CC(=O)N1CCCC(Cn2nc(-c3cnn(C)c3)c3c(N)ncnc32)C1 (centres undefined) | 19.2 nM | 808 nM
Cn1cc(-c2nn(CC3CCCN(C#N)C3)c3ncnc(N)c23)cn1 (centres undefined) | 189 nM | –
COCCn1cc(-c2nn(CC3CCN(C(=O)CC#N)CC3)c3ncnc(N)c23)cn1 | 315 nM | –
Cn1cc(-c2nn(C3CCCN(C(=O)CC#N)C3)c3ncnc(N)c23)cn1 (centres undefined) | 32.3 nM | 590 nM
COCCn1cc(-c2nn(CC3CCN(C#N)CC3)c3ncnc(N)c23)cn1 | > 1000 nM | –
CN(C)CC(=O)N1CCCC(n2nc(-c3cnn(C)c3)c3c(N)ncnc32)C1 (centres undefined) | 583 nM | –
COCCn1cc(-c2nn(C3CCN(C(=O)CC#N)CC3)c3ncnc(N)c23)cn1 | 374 nM | 367 nM
COCCn1cc(-c2nn(CC3CCCN(C#N)C3)c3ncnc(N)c23)cn1 (centres undefined) | 143 nM | 1400 nM
C=CC(=O)N1CCCC(n2nc(-c3cnn(CCOC)c3)c3c(N)ncnc32)C1 (centres undefined) | 21.3 nM | 590 nM
COCCn1cc(-c2nn(C3CCCN(C(=O)CN(C)C)C3)c3ncnc(N)c23)cn1 (centres undefined) | 756 nM | –
COCCn1cc(-c2nn(CC3CCN(C(=O)CN(C)C)CC3)c3ncnc(N)c23)cn1 | > 1000 nM | –
C=CC(=O)N1CCCC(Cn2nc(-c3cnn(CCOC)c3)c3c(N)ncnc32)C1 (centres undefined) | 36.3 nM | 1420 nM
COCCn1cc(-c2nn(C3CCCN(C(=O)CC#N)C3)c3ncnc(N)c23)cn1 (centres undefined) | 57.7 nM | 697 nM
COCCn1cc(-c2nn(C3CCN(C#N)CC3)c3ncnc(N)c23)cn1 | 124 nM | 147 nM
CN(C)CC(=O)N1CCC(Cn2nc(-c3cnn(C)c3)c3c(N)ncnc32)CC1 | > 1000 nM | –
C=CC(=O)N1CCC(Cn2nc(-c3cnn(C)c3)c3c(N)ncnc32)CC1 | 197 nM | 469 nM
